# Results published in patent publication US20230192818A1 (TWIST BIOSCIENCE, published 2023).
# Tests used:
# Omicron spike trimer = Omicron spike trimer (SARS-CoV-2)
# Delta spike trimer = Delta spike trimer (SARS-CoV-2)
binder,measurement,setting,value
Antibody 813 (bispecific antibody) EVQLVESGGGLVQPGGSLRLSCAASGFTFSPSWMGWFRQAPGKEREFVATINEYGGRNYADSVKGRFTISADNSKNTAYLQMNSLKPEDTAVYYCARVDRDFDYWGQGTLVTVSSGGGGS[human IgG1 Fc with C220S (EU numbers) not listed]GGGSGGGGSASEVQLVESGGGLVQPGGSLRLSCAASGSTFSINAMGWFRQAPGKEREFVAGITSSGGYTNYADSVKGRFTISADNSKNTAYLQMNSLKPEDTAVYYCAADGVPEYSDYASGPVWGQGTLVTVSS,IC50,Omicron spike trimer,9.04 nM
same,IC50,Delta spike trimer,8.8 nM
